Measured values from the supplement of paper PMC8728848.
This is one part of the list.

Columns and labels:
Test in all cases: glycan array binding signal (z-score within array); higher = stronger binding
Conditions in all cases: glycan notation: IUPAC condensed, linker removed
[1] = target: Gal6S(b1-4)Glc6S
How it was run: (§1)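 Glycan array data were curated from 3228 arrays in the Consortium for Functional Glycomics database and kept only where the protein sequence was available. Glycan names were converted to IUPAC-condensed notation, and columns mapping to the same glycan were averaged. The binding signal is a within-array Z-score, averaged across arrays of the same protein sequence at different concentrations or buffers and across linkers. Negative Z-scores can be read as non-binding.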

[2] = target: Gal6S(b1-4)GlcNAc
How it was run: as §1

[3] = target: Gal6S(b1-4)GlcNAc6S
How it was run: as §1

[4] = target: GalNAc(a1-3)Gal
How it was run: as §1

[5] = target: GalNAc(a1-3)GalNAc
How it was run: as §1

[6] = target: GalNAc(a1-3)GalNAc(b1-3)Gal(a1-4)Gal(b1-4)Glc
How it was run: as §1

[7] = target: GalNAc(a1-3)GalNAc(b1-3)Gal(a1-4)Gal(b1-4)GlcNAc
How it was run: as §1

[8] = target: GalNAc(b1-3)Gal
How it was run: as §1

[9] = target: GalNAc(b1-3)Gal(a1-4)Gal(b1-4)GlcNAc
How it was run: as §1

[10] = target: GalNAc(b1-3)Gal(a1-4)Gal(b1-4)GlcNAc(b1-3)Gal(b1-4)Glc
How it was run: as §1

[11] = target: GalNAc(b1-3)Gal(a1-6)Gal(b1-4)Glc
How it was run: as §1

[12] = target: GalNAc(b1-3)GalNAc
How it was run: as §1

[13] = target: GalNAc(b1-3)GlcNAc
How it was run: as §1

[14] = target: GalNAc(b1-4)Gal(b1-4)Glc
How it was run: as §1

[15] = target: GalNAc(b1-4)GlcNAc
How it was run: as §1

[16] = target: GalNAc(b1-4)GlcNAc(b1-2)Man
How it was run: as §1

[17] = target: GalNAc(b1-4)GlcNAc(b1-2)Man(a1-3)[GalNAc(b1-4)GlcNAc(b1-2)Man(a1-6)]Man(b1-4)GlcNAc(b1-4)GlcNAc
How it was run: as §1

[18] = target: GalNAc(b1-4)GlcNAc(b1-3)GalNAc(b1-4)GlcNAc
How it was run: as §1

[19] = target: GalNAc(b1-4)GlcNAc6S
How it was run: as §1

[20] = target: GalNAc(b1-6)GalNAc
How it was run: as §1

[21] = target: GalNAc3S(b1-4)GlcNAc
How it was run: as §1

[22] = target: GalNAc3S(b1-4)GlcNAc3S
How it was run: as §1

[23] = target: GalNAc3S(b1-4)[Fuc(a1-3)]GlcNAc
How it was run: as §1

[24] = target: GalNAc4S6S(b1-4)GlcNAc
How it was run: as §1

[25] = target: GalNAc6S(b1-4)GlcNAc
How it was run: as §1

[26] = target: Glc(a1-4)Glc
How it was run: as §1

[27] = target: Glc(a1-4)Glc(a1-4)Glc(a1-4)Glc
How it was run: as §1

[28] = target: Glc(a1-6)Glc(a1-6)Glc
How it was run: as §1

[29] = target: Glc(a1-6)Glc(a1-6)Glc(a1-6)Glc
How it was run: as §1

[30] = target: Glc(b1-4)Glc
How it was run: as §1

[31] = target: Glc(b1-6)Glc
How it was run: as §1

[32] = target: GlcA(b1-3)Gal
How it was run: as §1

[33] = target: GlcA(b1-3)GlcNAc
How it was run: as §1

[34] = target: GlcA(b1-6)Gal
How it was run: as §1

[35] = target: GlcA3S(b1-3)Gal(b1-4)GlcNAc(b1-2)Man
How it was run: as §1

[36] = target: GlcA3S(b1-3)Gal(b1-4)GlcNAc(b1-3)Gal(b1-4)Glc
How it was run: as §1

[37] = target: GlcNAc(a1-3)Gal(b1-4)GlcNAc
How it was run: as §1

[38] = target: GlcNAc(a1-4)Gal(b1-3)GlcNAc
How it was run: as §1

[39] = target: GlcNAc(a1-4)Gal(b1-4)GalNAc
How it was run: as §1

[40] = target: GlcNAc(a1-4)Gal(b1-4)GlcNAc
How it was run: as §1

[41] = target: GlcNAc(a1-4)Gal(b1-4)GlcNAc(b1-3)Gal(b1-4)Glc
How it was run: as §1

[42] = target: GlcNAc(a1-4)Gal(b1-4)GlcNAc(b1-3)Gal(b1-4)GlcNAc
How it was run: as §1

[43] = target: GlcNAc(a1-4)Gal(b1-4)GlcNAc(b1-3)Gal(b1-4)GlcNAc(b1-3)Gal(b1-4)GlcNAc
How it was run: as §1

[44] = target: GlcNAc(a1-4)Gal(b1-4)GlcNAc(b1-3)Gal(b1-4)[Fuc(a1-3)]GlcNAc(b1-3)Gal(b1-4)[Fuc(a1-3)]GlcNAc
How it was run: as §1

[45] = target: GlcNAc(a1-6)Gal(b1-4)GlcNAc
How it was run: as §1

B1: CBM40 CPF071 (Clostridium perfringens) (protein)
chain: MAHHHHHHVGTGSNDDDDKSPDPMLSSLGEYKDINLESSNASNITYDLEKYKNLDEGTIVVRFNSKDSKIQSLLGISNSKTKNGYFNFYVTNSRVGFELRNQKNEGNTQNGTENLVHMYKDVALNDGDNTVALKIEKNKGYKLFLNGKMIKEVKDTNTKFLNNIENLDSAFIGKTNRYGQSNEYNFKGNIGFMNIYNEPLGDDYLLSKTGETK
Q: How did the “glycan array binding signal (z-score)” value [1] turn out when B1 was run?
A: The value was 1.43.

Q: And the “glycan array binding signal (z-score)” value [2]?
A: Its value is -0.172.

Q: What about the “glycan array binding signal (z-score)” value [3] of the same binder?
A: The value was -0.442.

Q: And the “glycan array binding signal (z-score)” value [4]?
A: The value was -0.186.

Q: And the “glycan array binding signal (z-score)” value [5]?
A: Its value is -0.438.

Q: And the “glycan array binding signal (z-score)” value [6]?
A: The value was 0.121.

Q: What about the “glycan array binding signal (z-score)” value [7] of the same binder?
A: Its value is -0.251.

Q: What about the “glycan array binding signal (z-score)” value [8] of the same binder?
A: Its value is -0.078.

Q: What about the “glycan array binding signal (z-score)” value [9] of the same binder?
A: The value was -0.446.

Q: What about the “glycan array binding signal (z-score)” value [10] of the same binder?
A: Its value is -0.464.

Q: And the “glycan array binding signal (z-score)” value [11]?
A: Its value is -0.253.

Q: And the “glycan array binding signal (z-score)” value [12]?
A: The value was 0.09.

Q: And the “glycan array binding signal (z-score)” value [13]?
A: Its value is -0.103.

Q: What about the “glycan array binding signal (z-score)” value [14] of the same binder?
A: The value was -0.291.

Q: And the “glycan array binding signal (z-score)” value [15]?
A: The value was -0.231.

Q: What about the “glycan array binding signal (z-score)” value [16] of the same binder?
A: The value was -0.465.

Q: What about the “glycan array binding signal (z-score)” value [17] of the same binder?
A: The value was 0.332.

Q: What about the “glycan array binding signal (z-score)” value [18] of the same binder?
A: Its value is -0.182.

Q: What about the “glycan array binding signal (z-score)” value [19] of the same binder?
A: Its value is -0.249.

Q: What about the “glycan array binding signal (z-score)” value [20] of the same binder?
A: Its value is -0.243.

Q: What about the “glycan array binding signal (z-score)” value [21] of the same binder?
A: Its value is -0.055.

Q: What about the “glycan array binding signal (z-score)” value [22] of the same binder?
A: Its value is -0.487.

Q: And the “glycan array binding signal (z-score)” value [23]?
A: Its value is -0.378.

Q: What about the “glycan array binding signal (z-score)” value [24] of the same binder?
A: The value was 0.038.

Q: What about the “glycan array binding signal (z-score)” value [25] of the same binder?
A: Its value is 0.037.

Q: And the “glycan array binding signal (z-score)” value [26]?
A: The value was -0.246.

Q: What about the “glycan array binding signal (z-score)” value [27] of the same binder?
A: The value was -0.302.

Q: What about the “glycan array binding signal (z-score)” value [28] of the same binder?
A: The value was 0.464.

Q: And the “glycan array binding signal (z-score)” value [29]?
A: Its value is -0.233.

Q: And the “glycan array binding signal (z-score)” value [30]?
A: Its value is 2.37.

Q: And the “glycan array binding signal (z-score)” value [31]?
A: The value was -0.589.

Q: What about the “glycan array binding signal (z-score)” value [32] of the same binder?
A: The value was -0.573.

Q: And the “glycan array binding signal (z-score)” value [33]?
A: The value was 0.262.

Q: And the “glycan array binding signal (z-score)” value [34]?
A: The value was -0.273.

Q: What about the “glycan array binding signal (z-score)” value [35] of the same binder?
A: Its value is -0.196.

Q: And the “glycan array binding signal (z-score)” value [36]?
A: Its value is -0.472.

Q: What about the “glycan array binding signal (z-score)” value [37] of the same binder?
A: Its value is -0.478.

Q: And the “glycan array binding signal (z-score)” value [38]?
A: Its value is -0.341.

Q: And the “glycan array binding signal (z-score)” value [39]?
A: The value was 0.411.

Q: And the “glycan array binding signal (z-score)” value [40]?
A: Its value is -0.441.

Q: And the “glycan array binding signal (z-score)” value [41]?
A: The value was -0.237.

Q: And the “glycan array binding signal (z-score)” value [42]?
A: Its value is -0.537.

Q: And the “glycan array binding signal (z-score)” value [43]?
A: The value was -0.178.

Q: And the “glycan array binding signal (z-score)” value [44]?
A: The value was -0.203.

Q: What about the “glycan array binding signal (z-score)” value [45] of the same binder?
A: The value was 0.178.
